Measurements reported in PubChem BioAssay AID1460 (National Center for Advancing Translational Sciences (NCATS), 2008).
Several values for one entry are separate records, joined by “and”; a condition that tells them apart may be missing. Equal values may be shown once. Out of some 270,000 compounds screened, about 5,800 (2.1%) were called active. The inconclusive results got no clear call from the source; some entries with a clear call stand among them for comparison. Calls follow the shape of the dose curve; as a rule, active = well fitted inhibition curve with a large enough effect; inconclusive = small, poorly fitted or top-dose-only effect; inactive = flat fitted curve, though single readings scatter. Where the call is inconclusive, the potency comes from a doubtful curve fit.

Molecular target: Microtubule-associated protein tau (Homo sapiens) (UniProt P10636)
Chain of UniProt P10636 (P10636 whole entry, looked up): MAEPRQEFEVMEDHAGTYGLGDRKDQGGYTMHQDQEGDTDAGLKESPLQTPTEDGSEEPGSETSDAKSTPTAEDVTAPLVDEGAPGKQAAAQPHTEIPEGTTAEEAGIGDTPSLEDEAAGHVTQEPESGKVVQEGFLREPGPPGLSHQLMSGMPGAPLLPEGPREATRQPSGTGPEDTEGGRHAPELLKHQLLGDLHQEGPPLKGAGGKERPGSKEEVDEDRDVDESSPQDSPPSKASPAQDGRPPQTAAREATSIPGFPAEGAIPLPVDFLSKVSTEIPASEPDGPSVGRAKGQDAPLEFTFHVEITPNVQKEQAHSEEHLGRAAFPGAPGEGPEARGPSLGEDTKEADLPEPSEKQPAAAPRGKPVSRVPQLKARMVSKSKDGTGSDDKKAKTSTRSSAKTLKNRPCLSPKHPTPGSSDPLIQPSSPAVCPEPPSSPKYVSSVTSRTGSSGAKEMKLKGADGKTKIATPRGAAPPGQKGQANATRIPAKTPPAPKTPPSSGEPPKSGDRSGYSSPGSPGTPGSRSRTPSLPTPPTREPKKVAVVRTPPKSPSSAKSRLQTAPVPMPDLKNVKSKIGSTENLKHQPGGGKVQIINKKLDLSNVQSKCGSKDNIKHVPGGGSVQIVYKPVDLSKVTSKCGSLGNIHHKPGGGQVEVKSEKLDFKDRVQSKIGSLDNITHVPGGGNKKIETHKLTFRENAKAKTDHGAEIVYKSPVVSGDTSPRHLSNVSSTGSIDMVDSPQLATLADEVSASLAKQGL
Assay: qHTS for Inhibitors of Tau Fibril Formation, Thioflavin T Binding; also: nearly all actives have a fitted effect of over 55% in size
Conditions: recombinant tau K18 P301L (four-repeat tau fragment), heparin-induced fibrillization, ThT fluorescence; series mostly up to 57.4 µM; activity, negative = inhibition: at the top concentration
In short: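 Recombinant human tau K18 fragment […] carrying P301L, 15 uM unlabeled plus 0.24 uM Alexa 594-labeled, was fibrillized with 20 uM heparin in 100 mM sodium acetate pH 7 for 6 hr at 37 C; 30 uM ThT fluorescence read after 1 hr.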
% is scaled to controls: 0 for no effect and ±100 for the full control effect; potency is read from the fitted curve at half-maximal effect; tags tell the direction and shape of the fitted curve.

SMILES	Potency	activity, negative = inhibition
CCCn1c(N/N=C\C=C\c2ccccc2)nc2c1c(=O)[nH]c(=O)n2C	inconclusive: 11.2 µM [inhibitor, partial curve]	–
Cc1c(C(=O)N(Cc2ccc(N(C)C)cc2)CC2CCCO2)oc2ccc(Br)cc12 (stereo not drawn)	inconclusive: 28.2 µM [inhibitor, single point]	–
Nc1n[nH]c(N)c1N=Nc1cccc(F)c1	inconclusive: 15.8 µM [inhibitor, partial curve]	–
CCN1CCN(c2cc(C)c3cc(NC(=O)c4ccccc4F)ccc3n2)CC1	inconclusive: 14.1 µM [inhibitor, partial curve] and inconclusive: 12.6 µM [inhibitor, partial curve]	–
CCN(Cc1cc2ccc(C)cc2[nH]c1=O)C(=O)c1ccncc1	–	inactive: -12.6%
Cc1ccc(C(=O)CSc2nc3cc(S(=O)(=O)N4CCOCC4)ccc3o2)cc1	inconclusive: 22.4 µM [inhibitor, single point]	–
C=CSc1sc(Cl)c(N(C)C)c1[N+](=O)[O-]	inconclusive: 22.4 µM [inhibitor, single point]	–
CC(=O)N1CCc2cc(Br)cc(S(=O)(=O)CCC(=O)Nc3ccc(C)cc3Cl)c21	–	inactive: -7.31%
CCOc1ccc2oc(=O)cc(CN3CCN(c4ccc(Cl)cc4)CC3)c2c1	–	inactive: 3.72%
COC(=O)C1C(=O)/C(=C/N(C)C)C(=O)CC1(C)C (stereo not drawn)	inconclusive: 25.1 µM [inhibitor, partial curve]	–
C=CCNC(=S)/N=c1/ccccn1CC	–	inactive: -5.55%
O=C(OCC(=O)N1CCc2ccccc21)c1nc(Cl)ccc1Cl	inconclusive: 17.8 µM [inhibitor, partial curve]	–
O=C(Nc1ccc(N2CCOCC2)cc1N1CCOCC1)c1ccc([N+](=O)[O-])cc1	inconclusive: 3.98 µM [inhibitor, full curve]	–
CCOC(=O)C1CCCN(C(c2ccccn2)c2c(C)[nH]c3ccccc23)C1 (stereo not drawn)	inconclusive: 12.6 µM [inhibitor, partial curve]	–
COc1ccc(C(=O)c2ccc(Cl)c([N+](=O)[O-])c2)cc1	inconclusive: 25.1 µM [inhibitor, partial curve, poor fit]	–
Cc1cccc(NC(=O)CN(c2ccc(F)cc2)S(C)(=O)=O)c1	inconclusive: 20 µM [inhibitor, single point]	–
O=C(CCCn1c(=S)[nH]c2cc3c(cc2c1=O)OCO3)N1CCN(C2CCCCC2)CC1	inconclusive: 17.8 µM [inhibitor, partial curve]	–
CCOC(=O)c1c(NC(=O)CSc2nnc(C)c(=O)[nH]2)sc2c1CCC2	inconclusive: 39.8 µM [activator, single point]	–
